PubChem BioAssay AID1346378 (National Center for Advancing Translational Sciences (NCATS), 2018)
Screen size: about 420,000 compounds; about 540 (0.13%) were called active. The shares of active, inactive and inconclusive entries below differ from those in the screen. Rule as the data show it: active = activity change below about -50%; inconclusive = mostly about -30% to -49%; inactive = weaker than that.

Each compound was assayed against Phosphatidylinositol 4-kinase type 2-alpha (Homo sapiens) (UniProt Q9BTU6) (assay: qHTS for small molecular inhibitors of PI4K2A). Conditions: purified PI4K2A, ADP-Glo luminescence, 1 h; at 76.9 µM, hits give low values.
Procedure, shortened: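 PI4K2A activity was measured by ADP-Glo luminescence: enzyme (4 ug/mL stock) and phosphatidylinositol (1.2 mM stock) in Tris pH 7.5/MgCl2/EGTA/Triton X-100 buffer were reacted with ATP (300 microM stock) for one hour at ambient temperature.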
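Also: -100% = wells without enzyme as full effect.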

UniProt Q9BTU6, sequence (Q9BTU6 whole entry, looked up): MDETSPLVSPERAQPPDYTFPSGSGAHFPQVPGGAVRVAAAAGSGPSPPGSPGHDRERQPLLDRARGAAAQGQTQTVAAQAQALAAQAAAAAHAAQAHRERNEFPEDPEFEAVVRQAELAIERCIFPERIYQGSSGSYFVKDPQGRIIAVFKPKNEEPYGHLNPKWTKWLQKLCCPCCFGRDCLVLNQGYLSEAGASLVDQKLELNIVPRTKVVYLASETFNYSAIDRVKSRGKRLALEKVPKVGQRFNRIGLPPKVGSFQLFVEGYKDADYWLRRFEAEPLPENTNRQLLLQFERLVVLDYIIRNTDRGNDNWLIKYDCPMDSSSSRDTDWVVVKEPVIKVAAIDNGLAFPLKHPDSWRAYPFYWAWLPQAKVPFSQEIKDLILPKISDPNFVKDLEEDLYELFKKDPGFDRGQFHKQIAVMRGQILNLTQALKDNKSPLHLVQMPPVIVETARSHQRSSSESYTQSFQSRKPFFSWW

Activity change, negative = inhibition, active:
CCC1(OC(=O)CN(C)C)C(=O)OCc2c1cc1n(c2=O)Cc2cc3c(N)cccc3nc2-1 (stereo not drawn) -61.8%, COc1cc(/C=C/[N+](=O)[O-])ccc1OCc1cccc(C(=O)O)c1 -51%, Cn1c(CNc2ccccc2)cc(=O)n(C)c1=O -69.3%, CCn1c(CCC(N)=O)nnc1SCC(=O)c1cc(C)n(C2CC2)c1C -53%

Activity change, negative = inhibition, inactive:
C=CC1(C)CC(=O)C2(O)C(C)(O1)C(OC(C)=O)C(O)C1C(C)(C)CCC(O)C12C (stereo not drawn) -8.1%, CC(=O)c1ccc(N(CC(=O)NC2CCCCC2)C(=O)c2csnn2)cc1 -3.91%, O=C(c1ccc(-c2cccc(C(F)(F)F)c2)o1)N1CCOCC1 8.76%

Activity change, negative = inhibition, inconclusive:
O=C1/C(=C/Nc2ccc3c(c2)OCO3)CCc2ccccc21 -43.4%, COc1ccc2c(c1OC)C(=O)OC2Nc1nc(-c2cc3ccccc3oc2=O)cs1 (stereo not drawn) -30.6%, CC(=O)Nc1ccc(S(=O)(=O)/N=C2\C(=O)c3ccccc3C([O-])=C2n2cc[n+](-c3ccccn3)c2)cc1 -30.5%, N#CC(C#N)=c1ccc2c(c1)NC1(CCCCC1)N=2 -41.1%, O=S(=O)(NC1=NCCCCC1)c1ccc2sc(NS(=O)(=O)c3ccc4ccccc4c3)nc2c1 -33.6%, O=C(c1ccc(S(=O)(=O)N2CCC(c3nc4ccccc4[nH]3)CC2)cc1)N1CCOCC1 -30.7%, Cc1ccc(C)c(-n2c3nc(=O)[nH]c(=O)c-3cc3cc([N+](=O)[O-])ccc32)c1 -37.4%, CCC(=O)OC1(C)C(=O)C2=COC(c3ccc(OC)cc3)=CC2=C(Br)C1=O (stereo not drawn) -32.3%, Cc1ccc(NC(=O)c2cc(-c3ccco3)nc3ccccc23)cc1S(=O)(=O)N1CCOCC1 -44.8%, COc1ccc(CCNC(=O)c2ccc3nc(-c4ccco4)c(-c4ccco4)nc3c2)cc1OC -49.8%, COc1cccc(NC(=O)c2ccc3c(c2)OCCO3)c1 -40.9%, O=C(N/N=C\C=C\c1ccco1)c1cc(-c2ccc3ccccc3c2)n[nH]1 -41%, CN(C(=S)Nc1ccc(Oc2ccccc2)cc1)c1ccc(O)cc1 -37.3%, O=C(Nc1ccc(C(=O)N2CCCC2)cc1)c1ccccc1 -46.1%, COCCNC(=S)Nc1ccc2nsnc2c1 -38.2%, COc1ccc(C2=Nn3c(nnc3-c3ccncc3)SC2)cc1OC -48.3%
